# Data taken from the supplement of paper PMC8728848.
# This is one part of the list.
# B1: Gal 8 (Mus musculus), Q9JL15 (protein)
# chain: MGGSHHHHHHGMASMLSLNNLQNIIYNPIIPYVGTITEQLKPGSLIVIRGHVPKDSERFQVDFQLGNSLKPRADVAFHFNPHFKRSSCIVCNTLTQEKWGWEEITYDMPFRKEKSFEIVFMVLKNKFQVAVNGRHVLLYAHRISPEQIDTVGIYGKVNIHSIGFRFSSASALPHTLGDLQSMETSALGLTQINRENIQKPGKLQLSLPFEARLNASMGPGRTVVIKGEVNTNARSFNVDLVAGKTRDIALHLNPHLNVKAFVRNSFLQDAWGEEERNITCFPFSSGMYFEMIIYCDVREFKVAINGVHSLEYKHRFKDLSSIDTLSVDGDIRLLDVRSW
# Key:
# Assay in all cases: glycan array binding signal (z-score within array); higher = stronger binding
# Settings in all cases: glycan notation: IUPAC condensed, linker removed; mutation: R82H, R255H
# Neu5Ac(a2-3)Gal = target: Neu5Ac(a2-3)Gal
# Summary of the method: (§1)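 Glycan array binding is given as a within-array Z-score, which can be read as non-binding when negative. The arrays, 3228 of them, came from the Consortium for Functional Glycomics database and were retained only where the protein sequence was available. Z-scores were averaged across arrays of the same protein sequence at different concentrations or buffers and across linkers.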
# [1] = target: Neu5Ac(a2-3)Gal(b1-3)GalNAc
# Summary of the method: as §1
# [2] = target: Neu5Ac(a2-3)Gal(b1-3)GalNAc(b1-3)Gal(a1-4)Gal(b1-4)Glc
# Summary of the method: as §1
# [3] = target: Neu5Ac(a2-3)Gal(b1-3)GalNAc(b1-4)Gal(b1-4)Glc
# Summary of the method: as §1
# [4] = target: Neu5Ac(a2-3)Gal(b1-3)GalNAc(b1-4)[Neu5Ac(a2-3)]Gal(b1-4)Glc
# Summary of the method: as §1
# [5] = target: Neu5Ac(a2-3)Gal(b1-3)GalNAc(b1-4)[Neu5Ac(a2-8)Neu5Ac(a2-3)]Gal(b1-4)Glc
# Summary of the method: as §1
# [6] = target: Neu5Ac(a2-3)Gal(b1-3)GalNAc6S
# Summary of the method: as §1
# [7] = target: Neu5Ac(a2-3)Gal(b1-3)GlcNAc
# Summary of the method: as §1
# [8] = target: Neu5Ac(a2-3)Gal(b1-3)GlcNAc(b1-2)Man
# Summary of the method: as §1
# [9] = target: Neu5Ac(a2-3)Gal(b1-3)GlcNAc(b1-2)Man(a1-3)[GlcNAc(b1-4)][Neu5Ac(a2-3)Gal(b1-3)GlcNAc(b1-2)Man(a1-6)]Man(b1-4)GlcNAc(b1-4)GlcNAc
# Summary of the method: as §1
# [10] = target: Neu5Ac(a2-3)Gal(b1-3)GlcNAc(b1-2)Man(a1-3)[Neu5Ac(a2-3)Gal(b1-3)GlcNAc(b1-2)Man(a1-6)]Man(b1-4)GlcNAc(b1-4)GlcNAc
# Summary of the method: as §1
# [11] = target: Neu5Ac(a2-3)Gal(b1-3)GlcNAc(b1-2)[Neu5Ac(a2-3)Gal(b1-3)GlcNAc(b1-4)]Man(a1-6)[Neu5Ac(a2-3)Gal(b1-3)GlcNAc(b1-2)Man(a1-3)]Man(b1-4)GlcNAc(b1-4)GlcNAc
# Summary of the method: as §1
# [12] = target: Neu5Ac(a2-3)Gal(b1-3)GlcNAc(b1-3)Gal(b1-3)GlcNAc
# Summary of the method: as §1
# [13] = target: Neu5Ac(a2-3)Gal(b1-3)GlcNAc(b1-3)Gal(b1-4)GlcNAc
# Summary of the method: as §1
# [14] = target: Neu5Ac(a2-3)Gal(b1-3)GlcNAc(b1-3)GalNAc
# Summary of the method: as §1
# [15] = target: Neu5Ac(a2-3)Gal(b1-3)GlcNAc(b1-6)GalNAc
# Summary of the method: as §1
# [16] = target: Neu5Ac(a2-3)Gal(b1-3)GlcNAc6S
# Summary of the method: as §1
# [17] = target: Neu5Ac(a2-3)Gal(b1-3)[Fuc(a1-4)]GlcNAc
# Summary of the method: as §1
# [18] = target: Neu5Ac(a2-3)Gal(b1-3)[Fuc(a1-4)]GlcNAc(b1-3)Gal(b1-3)[Fuc(a1-4)]GlcNAc
# Summary of the method: as §1
# [19] = target: Neu5Ac(a2-3)Gal(b1-3)[Fuc(a1-4)]GlcNAc(b1-3)Gal(b1-4)[Fuc(a1-3)]GlcNAc
# Summary of the method: as §1
# [20] = target: Neu5Ac(a2-3)Gal(b1-3)[GlcNAc(b1-6)]GalNAc
# Summary of the method: as §1
# [21] = target: Neu5Ac(a2-3)Gal(b1-3)[Neu5Ac(a2-6)]GalNAc
# Summary of the method: as §1
# [22] = target: Neu5Ac(a2-3)Gal(b1-3)[Neu5Ac(a2-6)]GlcNAc(b1-3)[Fuc(a1-3)[Gal(b1-4)]GlcNAc(b1-6)]Gal(b1-4)Glc
# Summary of the method: as §1
# [23] = target: Neu5Ac(a2-3)Gal(b1-3)]Neu5Ac(a2-3)Gal(b1-4)]GlcNAc
# Summary of the method: as §1
# Neu5Ac(a2-3)Gal(b1-4)Glc = target: Neu5Ac(a2-3)Gal(b1-4)Glc
# Summary of the method: as §1
# [24] = target: Neu5Ac(a2-3)Gal(b1-4)GlcNAc
# Summary of the method: as §1
# [25] = target: Neu5Ac(a2-3)Gal(b1-4)GlcNAc(b1-2)Man
# Summary of the method: as §1
# [26] = target: Neu5Ac(a2-3)Gal(b1-4)GlcNAc(b1-2)Man(a1-3)[GlcNAc(b1-4)][Neu5Ac(a2-3)Gal(b1-4)GlcNAc(b1-2)Man(a1-6)]Man(b1-4)GlcNAc(b1-4)GlcNAc
# Summary of the method: as §1
# [27] = target: Neu5Ac(a2-3)Gal(b1-4)GlcNAc(b1-2)Man(a1-3)[Neu5Ac(a2-3)Gal(b1-4)GlcNAc(b1-2)Man(a1-6)]Man(b1-4)GlcNAc(b1-4)GlcNAc
# Summary of the method: as §1
# [28] = target: Neu5Ac(a2-3)Gal(b1-4)GlcNAc(b1-2)Man(a1-3)[Neu5Ac(a2-3)Gal(b1-4)GlcNAc(b1-2)Man(a1-6)]Man(b1-4)GlcNAc(b1-4)[Fuc(a1-6)]GlcNAc
# Summary of the method: as §1
# [29] = target: Neu5Ac(a2-3)Gal(b1-4)GlcNAc(b1-2)Man(a1-3)[Neu5Ac(a2-6)Gal(b1-4)GlcNAc(b1-2)Man(a1-6)]Man(b1-4)GlcNAc(b1-4)GlcNAc
# Summary of the method: as §1
# [30] = target: Neu5Ac(a2-3)Gal(b1-4)GlcNAc(b1-2)[Neu5Ac(a2-3)Gal(b1-4)GlcNAc(b1-4)]Man(a1-3)[GlcNAc(b1-4)][Neu5Ac(a2-3)Gal(b1-4)GlcNAc(b1-2)[Neu5Ac(a2-3)Gal(b1-4)GlcNAc(b1-6)]Man(a1-6)]Man(b1-4)GlcNAc(b1-4)GlcNAc
# Summary of the method: as §1
# [31] = target: Neu5Ac(a2-3)Gal(b1-4)GlcNAc(b1-2)[Neu5Ac(a2-3)Gal(b1-4)GlcNAc(b1-4)]Man(a1-3)[GlcNAc(b1-4)][Neu5Ac(a2-3)Gal(b1-4)GlcNAc(b1-4)Man(a1-6)]Man(b1-4)GlcNAc(b1-4)GlcNAc
# Summary of the method: as §1
# [32] = target: Neu5Ac(a2-3)Gal(b1-4)GlcNAc(b1-2)[Neu5Ac(a2-3)Gal(b1-4)GlcNAc(b1-6)]Man(a1-6)[Neu5Ac(a2-3)Gal(b1-4)GlcNAc(b1-2)Man(a1-3)][GlcNAc(b1-4)]Man(b1-4)GlcNAc(b1-4)GlcNAc
# Summary of the method: as §1
# [33] = target: Neu5Ac(a2-3)Gal(b1-4)GlcNAc(b1-3)Gal
# Summary of the method: as §1
# [34] = target: Neu5Ac(a2-3)Gal(b1-4)GlcNAc(b1-3)Gal(b1-3)GlcNAc
# Summary of the method: as §1
# [35] = target: Neu5Ac(a2-3)Gal(b1-4)GlcNAc(b1-3)Gal(b1-4)GlcNAc
# Summary of the method: as §1
binder,measurement,setting,value
B1,glycan array binding signal (z-score),Neu5Ac(a2-3)Gal,-0.259
same,glycan array binding signal (z-score),[1],-0.119
same,glycan array binding signal (z-score),[2],-0.228
same,glycan array binding signal (z-score),[3],-0.192
same,glycan array binding signal (z-score),[4],-0.226
same,glycan array binding signal (z-score),[5],-0.243
same,glycan array binding signal (z-score),[6],-0.211
same,glycan array binding signal (z-score),[7],-0.217
same,glycan array binding signal (z-score),[8],-0.251
same,glycan array binding signal (z-score),[9],-0.236
same,glycan array binding signal (z-score),[10],0.022
same,glycan array binding signal (z-score),[11],-0.206
same,glycan array binding signal (z-score),[12],-0.249
same,glycan array binding signal (z-score),[13],-0.256
same,glycan array binding signal (z-score),[14],-0.205
same,glycan array binding signal (z-score),[15],-0.225
same,glycan array binding signal (z-score),[16],-0.181
same,glycan array binding signal (z-score),[17],-0.277
same,glycan array binding signal (z-score),[18],-0.066
same,glycan array binding signal (z-score),[19],-0.217
same,glycan array binding signal (z-score),[20],0.39
same,glycan array binding signal (z-score),[21],-0.233
same,glycan array binding signal (z-score),[22],0.129
same,glycan array binding signal (z-score),[23],-0.269
same,glycan array binding signal (z-score),Neu5Ac(a2-3)Gal(b1-4)Glc,0.157
same,glycan array binding signal (z-score),[24],-0.29
same,glycan array binding signal (z-score),[25],1.22
same,glycan array binding signal (z-score),[26],-0.277
same,glycan array binding signal (z-score),[27],-0.27
same,glycan array binding signal (z-score),[28],-0.265
same,glycan array binding signal (z-score),[29],-0.286
same,glycan array binding signal (z-score),[30],-0.27
same,glycan array binding signal (z-score),[31],-0.278
same,glycan array binding signal (z-score),[32],-0.278
same,glycan array binding signal (z-score),[33],-0.283
same,glycan array binding signal (z-score),[34],-0.275
same,glycan array binding signal (z-score),[35],-0.292
